This is an account of results in paper PMC6919601, “Identification of Plasmodium dipeptidyl aminopeptidase allosteric inhibitors by high throughput screening” (PLoS ONE, 2019).

Hit rate of the full screen: of about 110,000 compounds, about 230 (0.21%) showed an effect of 50% or more. Some of the results follow.
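Further: 30 min substrate incubation versus DMSO and 10 µM JCP410 controls.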

For the experiment, the target named is DPAP1 (Plasmodium falciparum, UniProt Q8IIJ9). Briefly: primary screen, percent inhibition; read by cleavage of a fluorogenic dipeptide substrate; higher = more effect of the substance. Details: species or system P. falciparum D10 trophozoite lysates; single well.
DPAP1, sequence (Q8IIJ9 whole entry, looked up): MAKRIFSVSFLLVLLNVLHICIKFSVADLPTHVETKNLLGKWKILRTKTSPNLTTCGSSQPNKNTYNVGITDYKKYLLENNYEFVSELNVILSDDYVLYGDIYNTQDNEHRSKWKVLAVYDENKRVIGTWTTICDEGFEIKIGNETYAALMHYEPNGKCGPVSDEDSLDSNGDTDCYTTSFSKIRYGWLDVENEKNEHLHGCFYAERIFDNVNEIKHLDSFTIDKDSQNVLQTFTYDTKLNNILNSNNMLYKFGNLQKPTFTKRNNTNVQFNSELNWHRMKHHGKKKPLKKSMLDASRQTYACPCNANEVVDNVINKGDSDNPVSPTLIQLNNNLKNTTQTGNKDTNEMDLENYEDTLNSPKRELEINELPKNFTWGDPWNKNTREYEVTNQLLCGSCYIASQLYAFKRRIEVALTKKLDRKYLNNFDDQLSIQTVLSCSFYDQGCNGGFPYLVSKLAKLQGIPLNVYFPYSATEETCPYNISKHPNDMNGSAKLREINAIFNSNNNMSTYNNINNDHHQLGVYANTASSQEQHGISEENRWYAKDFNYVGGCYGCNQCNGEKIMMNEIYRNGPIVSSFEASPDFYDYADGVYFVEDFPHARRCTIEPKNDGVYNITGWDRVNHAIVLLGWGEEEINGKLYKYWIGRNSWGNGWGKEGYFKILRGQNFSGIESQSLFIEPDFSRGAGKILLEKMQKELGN
As for `CCOc1ccccc1C1C(C#N)=C(N)Oc2cc(N(C)C)ccc21` (stereo not drawn), the “% Inhibition @ 10 uM” value is -5.94%.

Regarding `COc1ccc(-c2cc(-c3ccc(C)cc3)nc(Cl)n2)cc1`, the “% Inhibition @ 10 uM” value is listed as -0.856%.

As for `CCCN1CCN(C(=O)c2cc3cc4ccc(C)cc4nc3s2)CC1`, the “% Inhibition @ 10 uM” value came to 0.675%.

On to `O=C1CC(C2CCCO2)C(=O)N1c1ccc(Cl)c(Cl)c1` (stereo not drawn), for which the “% Inhibition @ 10 uM” value was -6.83%.

Take `Cc1n[nH]c(C)c1CCCCOc1ccccc1F`: the “% Inhibition @ 10 uM” value was -0.351%.

As to `Cc1c2cnn(CC(=O)NC(C)C34CC5CC(CC(C5)C3)C4)c(=O)c2c(C)n1Cc1ccc(F)cc1` (stereo not drawn), the “% Inhibition @ 10 uM” value turned out to be 1.22%.

In the case of `CC(C)COC(=O)c1ccc(NC(=O)c2cccc([N+](=O)[O-])c2)cc1`, the “% Inhibition @ 10 uM” value is -7.32%.

With `CCCC1=C(C(=O)OCC)C(c2cc(OC)c(OC)c(OC)c2)C(C#N)=C(N)O1` (stereo not drawn), the “% Inhibition @ 10 uM” value is reported as -0.597%.

For `CC(=O)N1N=C(c2ccccc2)CC1c1cccc(O)c1` (stereo not drawn), the “% Inhibition @ 10 uM” value is -1.2%.

As to `COc1ccc(-c2nc3n(n2)C(c2ccc4c(c2)OCO4)C(C(=O)Nc2cccnc2)=C(C)N3)cc1` (stereo not drawn), the “% Inhibition @ 10 uM” value was 0.275%.

`CC(C)CC(=O)Nc1cccc(Oc2ccc3c(c2)C(=O)NC3=O)c1`: the “% Inhibition @ 10 uM” value came out at 0.889%.

With `CC(=O)N(C1=NCCCCS1)c1ccccc1`, the “% Inhibition @ 10 uM” value is 6.08%.

For `COc1ccc(-c2cn3nc(N4CCCC(C(=O)NCc5cccnc5)C4)sc3n2)cc1` (stereo not drawn), the “% Inhibition @ 10 uM” value was 3.46%.

As to `CCc1ccc(-c2cc3c(=O)n(CC(=O)NCc4ccc5c(c4)OCO5)nc(C)n3n2)cc1`, the “% Inhibition @ 10 uM” value is given as -2.85%.

With `O=C(NCc1cccnc1)c1ccc(CSc2nc3cccnc3n2Cc2cccc(F)c2)cc1`, the “% Inhibition @ 10 uM” value was determined as 9.02%.

Consider `COc1ccc(CCNC(=O)CSc2nc3c(c(=O)n2Cc2ccccc2)SCC3)cc1OC`, for which the “% Inhibition @ 10 uM” value is reported as -1.97%.

As to `Cc1ccc(S(=O)(=O)N2CCN(Cc3csc(C)n3)CC2)cc1`, the “% Inhibition @ 10 uM” value was -4.91%.

Consider `CC(C)(C)NCC(O)CO/N=C(\c1ccncc1)c1ccc(Br)cc1` (stereo not drawn), for which the “% Inhibition @ 10 uM” value was -2.42%.

As to `Cc1[nH]c2ccccc2c1C=C1C(=O)OC2(CCCC2)OC1=O`, the “% Inhibition @ 10 uM” value is on record as -10.5%.

`COc1cc(/C=C/c2nc(C#N)c(N(C)C)o2)cc(OC)c1OC`: the “% Inhibition @ 10 uM” value amounted to 2.54%.

Regarding `CSc1ccc(C2C(C#N)=C(N)Oc3c2c(C)nn3-c2ccccc2)cc1` (stereo not drawn), the “% Inhibition @ 10 uM” value was -1.08%.

As to `O=C(Nc1ccccc1C(F)(F)F)C1CC(=O)N(c2ccccc2Cl)C1` (stereo not drawn), the “% Inhibition @ 10 uM” value is given as -4.75%.

With `O=C(O)CC1(c2ccccc2)C(=O)c2ccccc2C1=O`, the “% Inhibition @ 10 uM” value is 4.98%.

For `CCOc1ccc(-n2cc(-c3ccccc3)c3c(N4CCN(C)CC4)ncnc32)cc1`, the “% Inhibition @ 10 uM” value was 5.08%.

`CCCCNC(=O)Cn1ncc2c(=O)oc3ccc(C)cc3c21`: the “% Inhibition @ 10 uM” value is reported as -3.45%.

For `CCCC(=O)Nc1ccc(S(=O)(=O)N2CCc3ccccc32)cc1`, the “% Inhibition @ 10 uM” value is given as 0.777%.

On to `O=C(c1ccccc1NC(=O)C(F)(F)F)N(c1ccccc1)c1ccc2ccccc2c1`, for which the “% Inhibition @ 10 uM” value is listed as 0.605%.

Regarding `NC(=O)c1c(NC(=O)c2ccccc2C(=O)O)sc2c1CCCC2`, the “% Inhibition @ 10 uM” value was 5.92%.

Take `Oc1ccc(Br)cc1-c1nc2ccccc2s1`: the “% Inhibition @ 10 uM” value was -5.33%.

As to `COc1ccc(C2C(C(=O)Nc3ccccn3)=C(C)Nc3ncnn32)c(OC)c1` (stereo not drawn), the “% Inhibition @ 10 uM” value is recorded as -6.7%.

As to `O=C1c2ccccc2C(=O)N1CC1NCCc2ccccc21` (stereo not drawn), the “% Inhibition @ 10 uM” value is recorded as -3.63%.

Turning to `O=C(C/C=C/c1ccccc1)O/N=C1/CCSc2ccccc21`, the “% Inhibition @ 10 uM” value was 11.8%.

In the case of `O=C(O)[C@H]1C2CCCCC2=C2CCCCC2[C@@H]1c1ccccc1` (stereo partly drawn), the “% Inhibition @ 10 uM” value came out at 1.64%.

With `CC(NC(=O)Cn1ncc2c3ccccc3nc-2c1O)c1ccccc1` (stereo not drawn), the “% Inhibition @ 10 uM” value is listed as -2.71%.

`Cc1ccc(CS(=O)Cc2ccc(C(=O)NCc3ccc(OC(C)C)cc3)o2)cc1` (stereo not drawn): the “% Inhibition @ 10 uM” value is -0.154%.

Take `COc1cccc(NC(=O)NCc2ccccc2Cl)c1`: the “% Inhibition @ 10 uM” value is reported as -5.82%.

`CCOC(=O)c1sc(NC(=O)c2cc(-c3ccc(C)s3)nc3ccccc23)nc1C`: the “% Inhibition @ 10 uM” value was -1.1%.

Regarding `COC(=O)c1cc(-c2cccc(OC)c2)c2c(=O)[nH]c(=O)n(C)c2n1`, the “% Inhibition @ 10 uM” value is -2.28%.

As to `Cc1nc2c(c(C)c1CCC(=O)NCC(N)=O)c(=O)n(C)c(=O)n2C`, the “% Inhibition @ 10 uM” value is given as -3.1%.

With `O=C(CNC(=S)N(Cc1ccc(F)cc1)C1CCCCC1)NCCN1CCOCC1`, the “% Inhibition @ 10 uM” value is -0.406%.

With `Cc1nc2c(c(N)c1C)CCC2`, the “% Inhibition @ 10 uM” value was -3.16%.

For `Cc1ccccc1Cc1c(C)nc2nc(SCC(=O)NCCCN3CCCCC3)nn2c1C`, the “% Inhibition @ 10 uM” value worked out at 1.5%.

As to `CCN(CC)C(=O)COc1ccc(C2C(C#N)=C(N)Oc3[nH]nc(C(C)(C)C)c32)cc1OC` (stereo not drawn), the “% Inhibition @ 10 uM” value came to 1.08%.

Consider `COc1ccccc1Oc1ccc(NC(=O)c2cc3cc(Br)ccc3o2)cn1`, for which the “% Inhibition @ 10 uM” value worked out at 1.76%.

`COc1ccc(-c2cc(C(F)(F)F)nc(SCC(=O)NCc3cccs3)n2)cc1`: the “% Inhibition @ 10 uM” value is reported as -4.85%.

Consider `CCOC(=O)c1cc(-c2ccc(F)cc2)n(CC(=O)NCCCN(CC)CC)c1C`, for which the “% Inhibition @ 10 uM” value is listed as -0.176%.

`COc1ccc2c(CNCCc3ccccc3OC)c(C(=O)O)n(Cc3ccccc3)c2c1`: the “% Inhibition @ 10 uM” value was found to be 3.09%.

With `COC(=O)c1ccccc1S(=O)(=O)NC(=O)Nc1nc(-c2cccs2)cc(C(F)(F)F)n1`, the “% Inhibition @ 10 uM” value is listed as -2.72%.
